Measured values taken from publication PMC4336329 (PLoS ONE, 2015).
About 2,200 (0.71%) of roughly 310,000 compounds showed an effect of 50% or more. Effects have a minus sign here. This is one part of the list.

Target: human ether-à-go-go-related gene (hERG) potassium channel (human, UniProt Q12809)
Assay: primary screen, population patch clamp on CHO cells stably expressing hERG

human ether-à-go-go-related gene (hERG) potassium channel, sequence (Q12809 whole entry, looked up): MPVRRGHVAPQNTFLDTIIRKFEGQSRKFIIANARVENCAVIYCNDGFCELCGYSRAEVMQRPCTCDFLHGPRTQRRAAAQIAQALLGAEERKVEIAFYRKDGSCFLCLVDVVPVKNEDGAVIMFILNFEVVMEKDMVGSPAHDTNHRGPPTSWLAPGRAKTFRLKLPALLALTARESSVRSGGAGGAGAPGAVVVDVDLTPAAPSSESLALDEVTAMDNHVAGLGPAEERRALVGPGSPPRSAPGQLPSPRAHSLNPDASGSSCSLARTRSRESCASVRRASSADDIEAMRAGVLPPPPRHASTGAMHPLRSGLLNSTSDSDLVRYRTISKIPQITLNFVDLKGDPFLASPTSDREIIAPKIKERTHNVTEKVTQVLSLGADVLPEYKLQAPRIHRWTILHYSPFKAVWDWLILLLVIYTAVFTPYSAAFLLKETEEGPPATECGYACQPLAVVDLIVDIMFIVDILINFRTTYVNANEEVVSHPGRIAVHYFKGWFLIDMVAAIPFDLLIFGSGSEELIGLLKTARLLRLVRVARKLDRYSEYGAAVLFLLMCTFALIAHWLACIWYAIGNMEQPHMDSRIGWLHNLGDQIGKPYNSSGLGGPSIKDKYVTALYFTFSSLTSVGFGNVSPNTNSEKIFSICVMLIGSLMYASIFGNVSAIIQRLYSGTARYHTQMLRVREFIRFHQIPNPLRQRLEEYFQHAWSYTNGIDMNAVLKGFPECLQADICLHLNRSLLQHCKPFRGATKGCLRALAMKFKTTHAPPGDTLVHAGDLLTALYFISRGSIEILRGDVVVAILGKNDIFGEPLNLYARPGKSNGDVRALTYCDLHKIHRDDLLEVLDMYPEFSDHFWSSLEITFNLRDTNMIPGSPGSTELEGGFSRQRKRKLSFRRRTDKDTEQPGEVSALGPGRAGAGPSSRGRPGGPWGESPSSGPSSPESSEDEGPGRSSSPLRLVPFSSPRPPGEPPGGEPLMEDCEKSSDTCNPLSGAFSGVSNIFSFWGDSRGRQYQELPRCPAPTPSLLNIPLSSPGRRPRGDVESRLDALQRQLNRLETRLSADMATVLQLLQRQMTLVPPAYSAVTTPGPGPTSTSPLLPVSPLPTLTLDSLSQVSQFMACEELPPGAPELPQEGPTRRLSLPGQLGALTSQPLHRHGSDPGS

SMILES	hERG current change (%, negative = inhibition) at 1uM
O=C(O)c1cccc(C(=O)O)c1	16.1%
Cc1nc2ccc(N=NN(C)C)cc2[nH]1	9.55%
O=C(CCn1c(=O)[nH]c2ccccc2c1=O)N1CCN(c2ccc(Cl)cc2)CC1	-4.13%
O=C(O)c1ccc(N2Cc3ccccc3C2)cc1O	6.71%
CCC1(c2ccccc2)C(=O)N(C)C(=O)N(C)C1=O	15.3%
CC(C)c1ccc(/C=N/NC(=O)c2ccccc2Cl)cc1	7.12%
CN1CCN(C(=O)CSc2cc(=O)n(C)c3ccccc23)CC1	10.7%
O=C(NC1CCCCC1)[C@@H]1CSC2c3ccccc3C(=O)N21 (stereo partly drawn)	13.3%
C/C(=N/NC(=O)C1CC1(c1ccccc1)c1ccccc1)c1cccs1 (stereo not drawn)	16.2%
O=C(COc1coc(CN2CCN(c3ccccc3)CC2)cc1=O)N1CCc2ccccc21	-0.178%
N#CCCN(C(=O)COC(=O)CCc1nc2ccccc2c(=O)[nH]1)c1ccccc1F	9.76%
CCCN(CC1CC1)C(=O)COC(=O)c1oc2c(F)cccc2c1C	-14.9%
CC(C)(C)c1ccc(S(=O)(=O)CCc2ccccn2)cc1	6.35%
COc1ccccc1NC(=O)c1cn(C)c(=O)c2cc(OC)c(OC)cc12	8.43%
CN(CCC#N)C(=O)COC(=O)c1ccc(Cl)c(S(N)(=O)=O)c1	17.9%
CC(=O)c1ccccc1NC(=O)COC(=O)c1c(C)nn(-c2ccccc2)c1C	13.6%
NS(=O)(=O)c1ccc(CCNC(=O)CSCC(=O)Nc2ccc(Cl)cc2)cc1	14.6%
CCNS(=O)(=O)c1ccc(CCC(=O)Nc2ccc3c(c2)OCCO3)cc1	23%
COCc1nnc(NC(=O)c2ccc(S(=O)(=O)N(C)Cc3ccccc3)cc2)o1	18.4%

SMILES	hERG current change (%, negative = inhibition) at 1uM
CCOC(=O)CSc1nc(N2CCOCC2)c2c(c1C#N)CC(C(C)C)OC2 (stereo not drawn)	-31.3%
C=C1C(O)C[C@H]2C(=C)CCC3[C@H](OC(=O)[C@]3(O)CO)[C@@H]12 (stereo partly drawn)	22.6%
CCn1c(C)nc([N+](=O)[O-])c1C(=O)O	7.93%
Cc1nn(S(=O)(=O)c2ccc(Br)cc2)c(C)c1S(=O)(=O)N1CCOCC1	6.19%
COc1ccc(C(=O)COC(=O)CCNS(=O)(=O)c2ccccc2)c(OC)c1	-0.37%
CCCS(=O)(=O)N1CCCC(C(=O)NCCN(Cc2ccccc2)C(C)C)C1 (stereo not drawn)	-5.65%
COc1ccc(N2CCN(S(=O)(=O)c3cc(Br)cnc3N)CC2)cc1	17.7%
CC(=O)Nc1nnc(SCC(=O)Nc2ccc(N3CCOCC3)c(Cl)c2)s1	9.99%
CC(=O)Nc1ccc2nc(-c3cccs3)[nH]c2c1	11.4%
CCN(CC)S(=O)(=O)c1ccc2c3c(cccc13)C(=O)S2	-18.3%
CCCCN1C(=O)C(O)=C(C(C)=O)C1c1ccccc1 (stereo not drawn)	14.8%
CCn1c2ccccc2c2nc3cc(OC)c(OC)cc3nc21	13.1%
Cc1cc(C)nc(Nc2ccc(O)cc2)n1	-1.88%
O=C(Nc1cccc(Cl)c1N1CCOCC1)c1ccc([N+](=O)[O-])o1	3.63%
O=C(NCCCN1CCOCC1)[C@@H]1CSC2c3ccccc3C(=O)N21 (stereo partly drawn)	6.76%
Cc1ccc(C(=O)N2CCNC(=O)C2CC(=O)Nc2ccccc2)cc1 (stereo not drawn)	13.4%
C=CCn1c(SCC(=O)Nc2nccs2)nnc1-c1cc2cccc(OC)c2o1	5.69%
CSc1ncccc1C(=O)OCC(=O)C(C)(C)C	5.07%
CCN(CC)C(=O)c1ccc(Nc2nnc(C)c3ccccc23)cc1	2.07%

SMILES	hERG current change (%, negative = inhibition) at 1uM
CC(C)(C)OC(=O)NCCCC[C@@H](C(=O)N1CCN(C(=O)OC(C)(C)C)CC1)n1cc(C(CO)NC(=O)OC(C)(C)C)nn1 (stereo partly drawn)	21%
O=c1cc(C2CCNCC2)[nH][nH]1	3.78%
Cc1nc2ccccc2c(=O)n1-c1ccccn1	12.6%
COc1cc(NC(=O)CN(C)S(=O)(=O)c2ccc(-c3ccc(=O)[nH]n3)s2)cc(OC)c1	3.04%
O=C(O)C1=C[C@H](c2ccc3c(c2)OCO3)C[C@H](OCc2ccc(CO)cc2)O1	9.9%
O=C1C2CC=CCC2C(=O)N1c1ccc(NCCc2cccc(F)c2)c([N+](=O)[O-])c1 (stereo not drawn)	6.69%
c1ccc(CN(Cc2ccccc2)c2nn[nH]n2)cc1	6.98%
O=C(CSc1ccc2nnc(CCNS(=O)(=O)c3ccccc3)n2n1)Nc1nc2ccccc2s1	10.5%
CCCc1nc2nc(C)c(NS(=O)(=O)c3ccc(C(C)(C)C)cc3)c(=O)n2[nH]1	9.98%
Cc1ccc(/C=N/NC(=O)c2cc(-c3cccnc3)nc3ccccc23)cc1	12.8%
Cc1ccc2[nH]cc(C(=O)CN3CCN(c4ccccn4)CC3)c2c1	3.06%
O=C(Nc1cccc2ccccc12)C1CCCC1	9.47%
O=[N+]([O-])c1ccc(CSc2ccccn2)cc1	8.1%
CCOC(=O)N1CCN(CCC(=O)Nc2ccc(C)c(Br)c2)CC1.Cl	-14.5%
CC1=C(C#N)c2nc(N)c(C#N)c(C)c2/C1=C\c1ccc(C)cc1	11.6%
CCOC(=O)C(C)(C)n1nnc(-c2ccc([N+](=O)[O-])cc2)n1	3.19%
COc1ccccc1Oc1nc2ccccn2c(=O)c1/C=C(\C#N)C(=O)Nc1c(C)n(C)n(-c2ccccc2)c1=O	12.1%
Cc1nc(C(N)=O)nc2ccccc12	8.56%
O=C(CSc1ncn[nH]1)N/N=C/c1ccc(Br)cc1	10.5%
